About 40 (0.01%) of roughly 330,000 compounds were called active. The shares of active, inactive and inconclusive entries below differ from those in the screen. Calls come from the whole dose curve; as a rule, active = well fitted inhibition curve with a large enough effect; inconclusive = small, poorly fitted or top-dose-only effect, or effect the other way; inactive = flat fitted curve, though single readings scatter. Potencies of inconclusive entries are doubtful fits and often do not repeat.
Target: Ubiquitin carboxyl-terminal hydrolase 2 (Homo sapiens) (UniProt O75604)
UniProt O75604, sequence (O75604 whole entry, looked up): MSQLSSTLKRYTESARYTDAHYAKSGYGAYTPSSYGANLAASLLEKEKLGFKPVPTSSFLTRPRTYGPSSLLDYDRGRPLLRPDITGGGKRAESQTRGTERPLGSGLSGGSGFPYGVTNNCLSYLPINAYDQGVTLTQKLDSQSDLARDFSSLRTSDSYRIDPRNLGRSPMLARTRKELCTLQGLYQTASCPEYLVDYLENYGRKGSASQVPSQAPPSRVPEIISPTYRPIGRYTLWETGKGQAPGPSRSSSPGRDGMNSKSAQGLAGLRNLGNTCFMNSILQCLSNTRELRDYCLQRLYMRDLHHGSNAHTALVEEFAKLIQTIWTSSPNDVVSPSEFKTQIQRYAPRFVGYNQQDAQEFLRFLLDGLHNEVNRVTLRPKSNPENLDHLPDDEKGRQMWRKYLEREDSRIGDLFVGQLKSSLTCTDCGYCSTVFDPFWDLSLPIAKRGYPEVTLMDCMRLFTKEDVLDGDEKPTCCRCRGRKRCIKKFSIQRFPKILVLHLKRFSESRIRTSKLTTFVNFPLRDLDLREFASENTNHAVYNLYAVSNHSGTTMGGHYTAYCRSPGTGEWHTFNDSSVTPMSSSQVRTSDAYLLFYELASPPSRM
Test: qHTS Assay for Inhibitors of Ubiquitin-specific Protease USP2a Using CHOP2 as the Reporter
Conditions: USP2 core, Ub-CHOP2 coupled fluorogenic reporter, 485/531; series mostly up to 38.3 µM
Summary of the method: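 Cell-free coupled assay: 10nM USP2 core preincubated 30min RT with compound in Tris-HCl pH 8.0/CaCl2/CHAPS buffer, then 25nM Ub-CHOP2 and 25nM reporter substrate; fluorescence (Ex 485/Em 531) read after 60min RT, normalized to NEM inhibition, concentration-response curves fitted.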
Potency is the fitted concentration of half-maximal effect; tags give direction and shape of the fitted curve or compound fluorescence and quenching.

| Structure (SMILES) | Potency |
| --- | --- |
| Cc1nnc(SCCN2CCOCC2)c2nn(-c3ccccc3F)c(C)c12 | inactive |
| CCOC(=O)c1c(NC(C)=O)sc2c1CCCNC2=O | inconclusive: 28.2 µM [falling, single point] |
| COc1ccc(CN2C(=O)C(CC(C)C)Nc3ncnc(N4CCN(c5ccccc5)CC4)c32)cc1 (configuration not stated) | inactive |
| O=C(O)CN1C(=O)/C(=C/c2ccc(SCc3ccccc3)o2)SC1=S | inconclusive: 28.2 µM [falling, single point] |
| COc1ccc(NC(=O)NS(=O)(=O)c2ccc(C)cc2)cn1 | inconclusive: 14.1 µM [fluorescent, single point] |
| C/C(=N/NC(=O)c1cc2ccccc2cc1O)c1ccco1 | inconclusive: 28.2 µM [falling, single point] |
| Cc1ccc2[nH]cc(/C=C/c3cc[n+](C)cc3)c2c1 | inconclusive: 10 µM [fluorescent, partial curve] |
| COc1cccc(/C=N/n2c(COc3ccccc3)n[nH]c2=S)c1 | inactive |
| O=C(O)CCc1nn2c3ccccc3n(CC(=O)O)c2nc1=O | inactive |
| CCn1c(=O)c(C(=O)Nc2ccccc2S(N)(=O)=O)c(O)c2ccccc21 | inconclusive: 22.4 µM [falling, single point] |
| Cc1ccc(/C=C/S(=O)(=O)N2CCC(C(=O)O)CC2)cc1 | inconclusive: 4.47 µM [falling, single point] |
| CN1/C(=C\C=C2/SC(=S)N(CC(=O)O)C2=O)C(C)(C)c2ccccc21 | inconclusive: 10 µM [fluorescent, partial curve] |
| CCOCCCn1c(=NC(C)=O)c(C#N)cc2c(=O)n3cccc(C)c3nc21 | inconclusive: 25.1 µM [fluorescent, single point] |
| O=C(/C=C/c1ccc(-c2ccccc2[N+](=O)[O-])o1)c1ccc(F)cc1 | inactive |
| CC1=C(C(=O)OCc2ccccc2)C(c2ccccc2Cl)NC(=O)N1CCCCCC(=O)O (configuration not stated) | inactive |
| COc1ccc(S(=O)(=O)N2CCC(C(=O)NCc3ccncc3)CC2)cc1 | inactive |
| O=C(NCCN1C(=O)CSC1=O)C1CC(=O)N(c2ccccc2)C1 (configuration not stated) | inconclusive: 3.16 µM [falling, single point] |
| O=C(COC(=O)/C=C/c1ccc(Cl)cc1)NC1CC1 | inconclusive: 12.6 µM [falling, single point] |
| COc1cc(CNC2CCCC2)cc(Cl)c1OCc1ccccc1Cl | inactive |
| C/C(=N/NC(=O)c1cccnc1)C1=C(O)CC(C)(C)CC1=O | inactive |
| CC(C)(C)NC(=O)CSc1nc(O)cc(=O)n1-c1ccccc1F | inconclusive: 28.2 µM [falling, single point] |
| CC(C)n1cc(/C=C/c2cc[n+](C)cc2)c2ccccc21 | inconclusive: 11.2 µM [fluorescent, partial curve] |
| CC1=CC(=O)c2c(O)ccc(O)c2C1=O | inconclusive: 22.4 µM [falling, single point] |
| O=C(O)CCNc1cc(N2CCN(C(=O)c3ccco3)CC2)c2noc3c2c1C(=O)c1ccccc1-3 | inconclusive: 22.4 µM [fluorescent, single point] |

| Structure (SMILES) | Potency |
| --- | --- |
| CSC1=NSC2=NC(=O)/C(=C/c3coc4ccccc4c3=O)C(=N)N12 | inconclusive: 14.1 µM [fluorescent, single point] |
| CC(=O)Nc1ccc(Nc2c3c4c(cccc4n(C)c2=O)C(=O)c2ccccc2-3)cc1 | inconclusive: 11.2 µM [fluorescent, single point] |
| Cc1cc([N+](=O)[O-])ccc1NC(=O)Nc1ccc(F)cc1F | inactive |
| CCCCCCCCCCOC(=O)Cn1c(COc2cccc(C)c2)[n+](C)c2ccccc21 | inconclusive: 20 µM [falling, single point] |
| COc1ccc(NC(=O)CSc2nc(O)cc(=O)n2-c2ccc(OC)cc2)cc1 | inconclusive: 22.4 µM [falling, single point] |
| Cc1cc(N)ccc1N1CCCC1 | inactive |
| CN=c1scc(-c2ccccc2F)n1/N=C/c1ccc(O)c(O)c1O | active: 12.6 µM |
| Cc1ccc(Nc2nc(-c3ccc(O)c(O)c3)cs2)nc1 | inactive |
| Cc1ccc(-c2noc(CN(C(=O)c3cccs3)C(C)C)n2)cc1 | inactive |
| CC(C)(C)CC(C)(C)NCC(=O)Nc1c2c(nc3ccccc13)CCC2 | inconclusive: 28.2 µM [falling, single point] |
| COc1ccc(CCNC(=O)COC(=O)CNS(=O)(=O)c2ccc(SC)c([N+](=O)[O-])c2)cc1 | inconclusive: 20 µM [falling, single point] |
| Cc1cc[n+](-c2[nH]c(=O)sc2/C=N/N=C(\[O-])c2ccccc2)cc1C | inconclusive: 11.2 µM [fluorescent, partial curve] |
| Cn1c(N2CCOCC2)nc(-c2ccccc2)c1-c1ccccc1 | inactive |
| Cc1ccc(NC(=S)NNC(=S)Nc2ccc(C)cc2C)cc1 | inactive |
| Cc1ccc(C2=[N+]([O-])C(C)N(O)C2(C)C)o1 (configuration not stated) | inconclusive: 5.01 µM [falling, single point] |
| CN1CCC/C1=C/C=C1\SC(=S)NC1=O | inconclusive: 11.2 µM [fluorescent, partial curve] |
| CN1CCN(S(=O)(=O)c2ccc(N3CCN(S(=O)(=O)/C=C/c4ccccc4)CC3)nc2)CC1 | inconclusive: 3.55 µM [falling, single point] |
| O=C(O)c1ccc2c(c1)C(=O)N([C@H](Cc1ccc(-c3ccccc3)cc1)C(=O)O)C2=O | inactive |
| CCC(C)Sc1nc2c(c(=O)[nH]1)C(c1cccs1)C1=C(CCCC1=O)N2 (configuration not stated) | inconclusive: 28.2 µM [falling, single point] |
| O=C(Oc1ccc2c(c1)O/C(=C\c1ccncc1)C2=O)c1cccs1 | inconclusive: 11.2 µM [fluorescent, single point] |
| O=C(c1ccccc1N(Cc1ccccc1)S(=O)(=O)c1ccccc1)N1CCOCC1 | inconclusive: 5.01 µM [falling, single point] |
| C[C@@H]1CN([C@@H](C)CO)C(=O)c2cc(NC(=O)CCC(F)(F)F)ccc2O[C@H]1CN(C)S(=O)(=O)c1ccc(Cl)cc1 | inconclusive: 3.16 µM [falling, single point] |
| COc1cc2cc(CN(CCN3CCCC3)C(=O)Nc3ccc(F)cc3)c(=O)[nH]c2cc1OC | inconclusive: 28.2 µM [falling, single point] |
| Cn1c(=O)c2ccccc2n(Cc2ccccc2F)c1=O | inactive |

| Structure (SMILES) | Potency |
| --- | --- |
| CCOc1ccc(NC(=O)CSc2nnc(Cn3c(=O)sc4ccccc43)n2C)cc1 | inconclusive: 28.2 µM [falling, single point] |
| CCCn1c(NCc2c[nH]c3ccccc23)nc2ccccc21 | inactive |
| Cc1ccc(/C=C2\SC(=S)N(/N=C/c3cc([N+](=O)[O-])ccc3O)C2=O)o1 | inconclusive: 25.1 µM [falling, single point] |
| Cc1cc(C(=O)CSc2nnc(Nc3ccccc3F)s2)c(C)n1CC1CCCO1 (configuration not stated) | inconclusive: 28.2 µM [falling, single point] |
| O=C(N/N=C/c1cc(Cl)cc(Cl)c1O)c1ccncc1 | inconclusive: 12.6 µM [fluorescent, single point] |
| O=C1COc2ccc(C(=O)COC(=O)/C=C/c3ccc(Br)o3)cc2N1 | inconclusive: 22.4 µM [falling, single point] |
| O=C(COC(=O)c1cccc(OC(F)F)c1)NC(=O)NC1CCCCC1 | inactive |
| Cn1cc(/C=C2\SC(=S)N(NC(=O)c3cccc(Cl)c3)C2=O)c2ccccc21 | inconclusive: 15.8 µM [fluorescent, single point] |
| Nc1ccc2nc3c(=O)n(C4CCCCC4)c(=O)[nH]c3nc2c1 | inconclusive: 11.2 µM [fluorescent, partial curve] |
| Oc1[nH]c2ccccc2c1N=Nc1ccccc1F | inconclusive: 12.6 µM [fluorescent, partial curve] |
| O=C(CSc1nnc(SCc2ccccc2)s1)N/N=C/c1c[nH]c2ccccc12 | inconclusive: 12.6 µM [falling, single point] |
| COc1cc(C2Nc3cc(Cl)c(S(N)(=O)=O)cc3S(=O)(=O)N2)ccc1OCc1ccccc1 (configuration not stated) | inactive |
| Cc1ccc(/C=C/C(=O)N2CC(=O)Nc3ccccc32)o1 | inconclusive: 28.2 µM [fluorescent, single point] |
| Cc1cc(CN(C)Cc2ccc(OCC(O)CN(C)Cc3ccccc3)cc2)on1 (configuration not stated) | inactive |
| COc1ccc(/C=C2\SC(=S)N(NS(=O)(=O)c3ccc(C)cc3)C2=O)c(OC)c1 | inconclusive: 15.8 µM [falling, single point] |
| Nc1ccc2nc(-c3ccc(N)c(Cl)c3)[nH]c2c1 | inconclusive: 22.4 µM [falling, single point] |
| COc1ccc(CNS(=O)(=O)c2ccc(S(=O)(=O)N3CCCCC3)cc2)cc1 | inconclusive: 14.1 µM [falling, single point] |
| CCOC(=O)Nc1ccc(S(=O)(=O)Nc2cc(C)nc(C)n2)cc1 | inconclusive: 5.01 µM [falling, single point] |
| COCCCNC(=O)CNC(=O)c1cn(-c2ccccc2OC)c(=O)c2ccccc12 | inactive |
| O=C(CSCc1ccccc1Cl)N1CCN(c2ccccn2)CC1 | inactive |
| C/C(=N/Nc1ncc(Br)cn1)c1ccc(Br)cc1 | inactive |
| COc1ccccc1/C=C/C=N/n1c(-c2cc(-c3ccccc3)n[nH]2)n[nH]c1=S | inactive |
| S=c1[nH]nc(CSCc2ccccc2Cl)n1C1CCCCC1 | inactive |
| COc1ccc(/C=N/Nc2nncn2N)cc1Br | inconclusive: 28.2 µM [falling, single point] |
